± gives the standard deviation of the averaged measurements. Laboratory Escherichia coli strains with one amino-acid change in an essential protein, pooled on minimal glucose agar with carbenicillin or gentamicin at twice the control MIC (plus kanamycin and chloramphenicol for the plasmids), 48 h. Fold change of barcode share against drug-free plates; higher = less susceptible. Active = above 20 in both replicates (the paper's putatively resistant). '<' = one read or none on drug, '>' = one read or none on a drug-free plate. Shares are relative, so most strains fall below 1 when a few take over. Listed are strains with at least 15 reads on both drug-free plates, and hits; most hits rest on fewer reference reads. Replicate rank correlation about 0.5. Edits are read from barcodes.
B1: valS; numbered along this chain (parent)
chain: MEKTYNPQDIEQPLYEHWEKQGYFKPNGDESQESFCIMIPPPNVTGSLHMGHAFQQTIMDTMIRYQRMQGKNTLWQVGTDHAGIATQMVVERKIAAEEGKTRHDYGREAFIDKIWEWKAESGGTITRQMRRLGNSVDWERERFTMDEGLSNAVKEVFVRLYKEDLIYRGKRLVNWDPKLRTAISDLEVENRESKGSMWHIRYPLADGAKTADGKDYLVVATTRPETLLGDTGVAVNPEDPRYKDLIGKYVILPLVNRRIPIVGDEHADMEKGTGCVKITPAHDFNDYEVGKRHALPMINILTFDGDIRESAQVFDTKGNESDVYSSEIPAEFQKLERFAARKAVVAAVDALGLLEEIKPHDLTVPYGDRGGVVIEPMLTDQWYVRADVLAKPAVEAVENGDIQFVPKQYENMYFSWMRDIQDWCISRQLWWGHRIPAWYDEAGNVYVGRNEDEVRKENNLGADVVLRQDEDVLDTWFSSALWTFSTLGWPENTDALRQFHPTSVMVSGFDIIFFWIARMIMMTMHFIKDENGKPQVPFHTVYMTGLIRDDEGQKMSKSKGNVIDPLDMVDGISLPELLEKRTGNMMQPQLADKIRKRTEKQFPNGIEPHGTDALRFTLAALASTGRDINWDMKRLEGYRNFCNKLWNASRFVLMNTEGQDCGFNGGEMTLSLADRWILAEFNQTIKAYREALDSFRFDIAAGILYEFTWNQFCDWYLELTKPVMNGGTEAELRGTRHTLVTVLEGLLRLAHPIIPFITETIWQRVKVLCGITADTIMLQPFPQYDASQVDEAALADTEWLKQAIVAVRNIRAEMNIAPGKPLELLLRGCSADAERRVNENRGFLQTLARLESITVLPADDKGPVSVTKIIDGAELLIPMAGLINKEDELARLAKEVAKIEGEISRIENKLANEGFVARAPEAVIAKEREKLEGYAEAKAKLIEQQAVIAAL
B2: cca; numbered along this chain (parent)
chain: MKIYLVGGAVRDALLGLPVKDRDWVVVGSTPQEMLDAGYQQVGRDFPVFLHPQTHEEYALARTERKSGSGYTGFTCYAAPDVTLEDDLKRRDLTINALAQDDNGEIIDPYNGLGDLQNRLLRHVSPAFGEDPLRVLRVARFAARYAHLGFRIADETLALMREMTHAGELEHLTPERVWKETESALTTRNPQVFFQVLRDCGALRVLFPEIDALFGVPAPAKWHPEIDTGIHTLMTLSMAAMLSPQVDVRFATLCHDLGKGLTPPELWPRHHGHGPAGVKLVEQLCQRLRVPNEIRDLARLVAEFHDLIHTFPMLNPKTIVKLFDSIDAWRKPQRVEQLALTSEADVRGRTGFESADYPQGRWLREAWEVAQSVPTKAVVEAGFKGVEIREELTRRRIAAVASWKEQRCPKPE
B3: nadB; numbered along this chain (parent)
chain: MNTLPEHSCDVLIIGSGAAGLSLALRLADQHQVIVLSKGPVTEGSTFYAQGGIAAVFDETDSIDSHVEDTLIAGAGICDRHAVEFVASNARSCVQWLIDQGVLFDTHIQPNGEESYHLTREGGHSHRRILHAADATGREVETTLVSKALNHPNIRVLERSNAVDLIVSDKIGLPGTRRVVGAWVWNRNKETVETCHAKAVVLATGGASKVYQYTTNPDISSGDGIAMAWRAGCRVANLEFNQFHPTALYHPQARNFLLTEALRGEGAYLKRPDGTRFMPDFDERGELAPRDIVARAIDHEMKRLGADCMFLDISHKPADFIRQHFPMIYEKLLGLGIDLTQEPVPIVPAAHYTCGGVMVDDHGRTDVEGLYAIGEVSYTGLHGANRMASNSLLECLVYGWSAAEDITRRMPYAHDISTLPPWDESRVENPDERVVIQHNWHELRLFMWDYVGIVRTTKRLERALRRITMLQQEIDEYYAHFRVSNNLLELRNLVQVAELIVRCAMMRKESRGLHFTLDYPELLTHSGPSILSPGNHYINR

Variants of: B1
Assay: barcode share on antibiotic plates over drug-free plates; higher = less susceptible
Conditions: with Escherichia coli (laboratory strain); antibiotic: carbenicillin; 2× MIC (3.1 µg/mL)
Method: (§1)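 A pool of E. coli strains, each edited to carry one amino-acid change in an essential protein, was grown for 48 h on minimal glucose agar with or without antibiotic; strain barcodes were sequenced; mean of two replicates.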

| Variant | fold change of barcode share |
| --- | --- |
| V652A | 0.246 ± 0.076 |
| V652D | 0.431 ± 0.23 |
| V652P | 0.458 ± 0.053 |
| V652Q | 0.299 ± 0.14 |
| L678A | 0.347 ± 0.059 |
| L678D | 0.288 ± 0.14 |
| L678P | 0.331 ± 0.14 |
| L678Q | 0.379 ± 0.1 |
| L678W | 0.3141 ± 0.0027 |
| F681A | 0.36 ± 0.16 |
| F681D | 0.36 ± 0.044 |
| F681Q | 0.337 ± 0.037 |
| F681W | 0.482 ± 0.018 |
| I757A | 0.281 ± 0.2 |
| I757Q | 0.558 ± 0.055 |
| I757W | 0.286 ± 0.23 |

Same assay, conditions: with Escherichia coli (laboratory strain); antibiotic: gentamicin; 2× MIC (MIC 0.45 µg/mL)

| Variant | fold change of barcode share |
| --- | --- |
| V652A | < 0.00555 |
| V652D | < 0.00685 |
| V652P | < 0.00677 |
| V652Q | 0.0112 ± 0.0044 |
| L678A | 0.00737 ± 0.0057 |
| L678D | 0.00715 ± 0.003 |
| L678P | 0.00639 ± 0.0038 |
| L678Q | 0.00424 ± 0.0023 |
| L678W | 0.00751 ± 0.008 |
| F681A | 0.00266 ± 0.0015 |
| F681D | 0.00571 ± 0.0065 |
| F681Q | 0.00489 ± 0.0032 |
| F681W | 0.00835 ± 0.0026 |
| I757A | < 0.00633 |
| I757Q | 0.0108 ± 0.0012 |

Variants of: B2
Assay: as above
Conditions: with Escherichia coli (laboratory strain); antibiotic: carbenicillin; 2× MIC (3.1 µg/mL)
Method: as §1

| Variant | fold change of barcode share |
| --- | --- |
| V25A | 0.285 ± 0.019 |
| V25D | 0.351 ± 0.21 |
| V25Q | 0.26 ± 0.017 |
| V26A | 0.245 ± 0.2 |
| V26P | 0.28 ± 0.21 |
| V26Q | 0.414 ± 0.28 |
| V27A | 0.341 ± 0.09 |
| V27D | 0.193 ± 0.034 |
| V27P | 0.287 ± 0.058 |
| V27Q | 0.302 ± 0.11 |
| V27W | 0.147 ± 0.074 |
| L136A | 0.815 ± 0.032 |
| L136D | 0.348 ± 0.056 |
| L136P | 0.363 ± 0.033 |
| L136Q | 0.597 ± 0.12 |
| L136W | 0.327 ± 0.054 |
| L206A | 0.393 ± 0.021 |
| L206D | 0.289 ± 0.048 |

| Variant | fold change of barcode share |
| --- | --- |
| L206P | 0.451 ± 0.21 |
| L206Q | 0.296 ± 0.036 |
| L206W | 0.6 ± 0.32 |
| F207A | 0.33 ± 0.041 |
| F207D | 0.334 ± 0.03 |
| F207P | 1.04 ± 0.19 |
| F207Q | 1 ± 0.1 |
| F207W | 0.3 ± 0.013 |
| M234A | 0.341 ± 0.07 |
| M234D | 0.273 ± 0.049 |
| M234P | 0.302 ± 0.11 |
| M234Q | 0.446 ± 0.25 |
| M234W | 0.344 ± 0.016 |
| I308A | 0.262 ± 0.19 |
| I308D | 0.203 ± 0.027 |
| I308P | 0.287 ± 0.24 |
| I308Q | 0.353 ± 0.19 |
| I308W | 0.304 ± 0.21 |

Same assay, conditions: with Escherichia coli (laboratory strain); antibiotic: gentamicin; 2× MIC (MIC 0.45 µg/mL)

| Variant | fold change of barcode share |
| --- | --- |
| V25A | 0.00557 ± 0.0033 |
| V25D | 0.0115 ± 0.0051 |
| V25Q | 0.00402 ± 0.0027 |
| V26A | < 0.00632 |
| V26P | < 0.00717 |
| V26Q | < 0.00561 |
| V27A | < 0.00305 |
| V27D | < 0.00464 |
| V27P | 0.00521 ± 0.0027 |
| V27Q | < 0.00358 |
| V27W | < 0.0128 |
| L136A | 0.0145 ± 0.004 |
| L136D | 0.00476 ± 0.0014 |
| L136P | 0.041 ± 0.056 |
| L136Q | 0.007 ± 0.0056 |
| L136W | 0.00443 ± 0.0015 |
| L206A | 0.0548 ± 0.068 |
| L206D | 0.00852 ± 0.0066 |

| Variant | fold change of barcode share |
| --- | --- |
| L206P | 0.0191 ± 0.023 |
| L206Q | 0.00519 ± 0.00038 |
| L206W | 0.0818 ± 0.054 |
| F207A | 0.00505 ± 0.0023 |
| F207D | 0.004 ± 0.003 |
| F207Q | 0.00524 ± 0.0039 |
| F207W | 0.00404 ± 0.0027 |
| M234A | < 0.00661 |
| M234D | < 0.00463 |
| M234P | < 0.00568 |
| M234Q | 0.00733 ± 0.0054 |
| M234W | 0.00917 ± 0.0087 |
| I308A | < 0.0119 |
| I308D | < 0.00675 |
| I308P | < 0.00415 |
| I308Q | < 0.00551 |
| I308W | 0.00437 ± 0.00058 |

Variants of: B3
Assay: as above
Conditions: with Escherichia coli (laboratory strain); antibiotic: carbenicillin; 2× MIC (3.1 µg/mL)
Method: as §1

| Variant | fold change of barcode share |
| --- | --- |
| V180A | 0.687 ± 0.25 |
| V180D | 0.67 ± 0.027 |
| V180P | 0.996 ± 0.077 |
| V180Q | 0.524 ± 0.036 |
| V180W | 0.723 ± 0.11 |

Same assay, conditions: with Escherichia coli (laboratory strain); antibiotic: gentamicin; 2× MIC (MIC 0.45 µg/mL)

| Variant | fold change of barcode share |
| --- | --- |
| V180A | 0.0468 ± 0.052 |
| V180D | 0.0197 ± 0.022 |
| V180P | 0.178 ± 0.011 |
| V180Q | 0.0138 ± 0.013 |
| V180W | 0.0164 ± 0.018 |

Source: the supplement of paper PMC11876631
